# Assay results taken from PMC4336329 (PLoS ONE, 2015).
# About 14,000 (4.5%) of roughly 310,000 compounds showed an effect of 50% or more. Effects have a minus sign here. Some of the results follow.
# Target: human ether-à-go-go-related gene (hERG) potassium channel (human, UniProt Q12809)
# Experiment: primary screen, population patch clamp on CHO cells stably expressing hERG
# 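Note: peak tail current of the secondary pulse compared with the same well before compound.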
# Sequence of human ether-à-go-go-related gene (hERG) potassium channel (Q12809 whole entry, looked up): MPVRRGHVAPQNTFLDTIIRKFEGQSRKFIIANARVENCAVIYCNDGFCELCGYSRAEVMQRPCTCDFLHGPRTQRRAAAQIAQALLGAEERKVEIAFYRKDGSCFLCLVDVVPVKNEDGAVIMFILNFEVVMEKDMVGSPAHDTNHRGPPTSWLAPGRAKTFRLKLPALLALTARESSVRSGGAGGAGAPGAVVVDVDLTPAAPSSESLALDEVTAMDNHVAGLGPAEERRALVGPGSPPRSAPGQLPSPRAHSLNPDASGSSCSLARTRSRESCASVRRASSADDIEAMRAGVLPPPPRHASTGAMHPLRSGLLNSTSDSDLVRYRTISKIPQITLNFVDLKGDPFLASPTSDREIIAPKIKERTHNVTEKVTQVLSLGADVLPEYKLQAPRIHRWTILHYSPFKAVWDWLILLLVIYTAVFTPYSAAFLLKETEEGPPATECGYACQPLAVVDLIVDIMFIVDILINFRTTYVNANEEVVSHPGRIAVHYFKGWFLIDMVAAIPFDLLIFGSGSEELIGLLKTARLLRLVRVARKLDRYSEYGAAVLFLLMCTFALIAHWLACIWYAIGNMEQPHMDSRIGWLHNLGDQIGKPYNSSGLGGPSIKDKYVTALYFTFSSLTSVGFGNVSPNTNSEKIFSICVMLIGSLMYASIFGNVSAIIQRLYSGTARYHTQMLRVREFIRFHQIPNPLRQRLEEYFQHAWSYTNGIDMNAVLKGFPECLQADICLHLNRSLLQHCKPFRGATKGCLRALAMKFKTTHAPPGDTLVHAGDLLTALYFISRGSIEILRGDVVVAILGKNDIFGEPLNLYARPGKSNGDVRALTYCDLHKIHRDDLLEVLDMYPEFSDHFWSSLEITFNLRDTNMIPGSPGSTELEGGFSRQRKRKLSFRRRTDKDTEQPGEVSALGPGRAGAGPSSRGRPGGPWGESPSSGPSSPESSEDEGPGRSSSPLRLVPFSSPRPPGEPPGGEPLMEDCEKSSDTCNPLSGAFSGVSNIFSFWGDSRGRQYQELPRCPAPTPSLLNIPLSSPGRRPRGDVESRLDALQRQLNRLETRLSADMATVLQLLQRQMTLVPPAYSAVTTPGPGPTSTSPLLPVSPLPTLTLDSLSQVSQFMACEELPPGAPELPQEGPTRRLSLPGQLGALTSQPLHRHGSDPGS
row,Structure (SMILES),"hERG current change (%, negative = inhibition) at 10uM"
1,CCOc1ccc(NC(=O)CSc2nc3ccccc3c(=O)n2CCCC(=O)N2CCCC2)cc1,-23.8%
2,O=C(NC(=S)N1CCc2ccccc21)c1ccccc1Cl,5.67%
3,CCOc1ccc2[nH]c(C)c(CN3CCCCC3)c(=O)c2c1,-13.1%
4,CC(=O)Nc1cc([As](=O)(O)O)ccc1O,19.8%
5,O=C(c1cc(-c2ccccc2Cl)on1)N1CCN(C(=O)c2ccco2)CC1,-44.2%
6,O=C(NN1C(=O)/C(=C\c2ccc(O)c([N+](=O)[O-])c2)SC1=S)c1ccccc1Cl,37%
7,CCOC(=O)C1(CCOC)CCN(Cc2nc(-c3cccs3)oc2C)CC1,-30.8%
8,CCOC(=O)N1CCN(C(=O)CN(c2ccc(Oc3ccccc3)cc2)S(C)(=O)=O)CC1,-15.4%
9,COC(=O)c1ccc(CSc2nc3ccccc3c(=O)n2-c2ccccc2)o1,-7.91%
10,Cc1cc2nc3c(c(=O)n2[nH]1)CCCC3,12.8%
11,O=C(Cc1ccc(Cl)c(Cl)c1)Nc1cccc(S(=O)(=O)N2CCOCC2)c1,3.1%
12,Cc1nn(-c2ccccc2)c(C)c1NC(=O)COc1ccc(C#N)cc1,-36.9%
13,COc1cccc(/C=N/Nc2ncnc3c2ncn3Cc2ccccc2)c1O,6%
14,Cc1ccc(NC(=O)c2cc(S(=O)(=O)N3CCCC3)cn2C)cc1C,8.58%
15,Fc1ccc(C(CCNCc2cccs2)c2ccco2)cc1 (centres unmarked),-66.8%
16,CCOc1ccc2nc(NC(=O)Nc3cccs3)sc2c1,18%
17,CC(C)n1cnc2cc(NC(=O)c3ccco3)ccc21,-2.78%
18,CCNc1nc(NC(C)C)nc(NS(=O)(=O)c2ccc(Cl)cc2)n1,14.7%
19,O=C(Nc1ncccc1O)c1ccc(Cl)c(S(=O)(=O)N2CCCCC2)c1,-16.1%

row,Structure (SMILES),"hERG current change (%, negative = inhibition) at 10uM"
1,O=C(NCC1CCCO1)c1ccc([N+](=O)[O-])o1 (centres unmarked),23.4%
2,O=C(NCCc1ccccc1)c1cc2ccccc2oc1=O,14.4%
3,COc1cccc(/C=N/N=C(\N)c2nonc2N)c1O,16.4%
4,Cc1cc(N)nc(C)c1C#N,2.13%
5,COc1ccc(C(CC(=O)Nc2ccc(C)cc2)NC(=O)C(F)(F)F)cc1 (centres unmarked),-4.81%
6,CCOC(=O)/C(=C/c1ccc(OC(=O)c2ccccc2)cc1)C(C)=O,-1.74%
7,COc1ccccc1/C=N/NS(=O)(=O)c1ccccc1,8.76%
8,O=C(COC(=O)c1ccncc1)c1ccccc1,16.2%
9,NC(=O)C1CCN(C2=C(NS(=O)(=O)c3ccc(Br)cc3)C(=O)c3ccccc3C2=O)CC1,-72.1%
10,O=C(Nc1ccccc1)Nc1nnc(SCc2ccc(Cl)cc2)s1,18.1%
11,Cc1cc(C)cc(C(=O)Nc2c3c(nn2C(C)(C)C)CS(=O)(=O)C3)c1,13.5%
12,Cc1snc(S(=O)(=O)/C(C#N)=N/Nc2ccc(C(F)(F)F)cc2)c1C#N,27%
13,Cc1ccc(-c2csc3ncnc(N4CCN(C)CC4)c23)cc1C,-18.7%
14,Cc1ccc(C)c(Oc2cc(NC(=O)CCCn3nc(C)c([N+](=O)[O-])c3C)cc([N+](=O)[O-])c2)c1,-5.44%
15,CC(O)CO (centres unmarked),17.7%
16,COc1ccccc1NC(=O)c1ccc[n+]([O-])c1,18%
17,COCCCNC(=S)NC(=O)c1ccc(C)cc1,7.65%
18,CCCOc1ccc(/C=N/n2nnnc2N)cc1OC,10.7%
19,COc1ccc(O)c(C(c2c(C)[nH][nH]c2=O)c2c(C)[nH][nH]c2=O)c1,-10.6%

row,Structure (SMILES),"hERG current change (%, negative = inhibition) at 10uM"
1,CCCn1nc(C(=O)OCC(=O)NC(C)c2ccccc2)c2ccccc2c1=O (centres unmarked),4.59%
2,COC(=O)Nc1ccc(S(=O)(=O)Nc2cnc3ccccc3n2)cc1,28.2%
3,COc1cc(OC)c2c(-c3ccccc3)cc(=O)oc2c1C(CCN1CCCCC1)c1ccc(N(C)C)cc1 (centres unmarked),-25%
4,COCCCN1CCN(c2nnc3n2-c2sc(Br)cc2C(c2ccccc2Cl)=NC3)CC1.CS(=O)(=O)O,-47.7%
5,COC(=O)C1=C(c2ccccc2OCc2ccccc2)C[C@@H]2CC[C@H]1N2C(=O)NCc1ccc(C(F)(F)F)cc1,-4.61%
6,CCOC(=O)c1c(C)cc(C)[nH]c1=O,10.3%
7,CCN(Cc1nc2cc(Cl)ccc2c(=O)[nH]1)C(=O)c1nn(C)c(=O)c2ccccc12,-21.4%
8,Cc1nc(NC(=O)c2ccccc2)sc1C1(C)CC(c2ccc(OC(F)(F)F)cc2)=NO1 (centres unmarked),9.56%
9,Cc1[nH+]csc1CCOC(=O)c1cccc([N+](=O)[O-])c1.[Cl-],-28.1%
10,COc1cc(N=c2ssnc2Cl)cc(OC)c1OC,4.85%
11,CC1(C)O[C@@H]2C[C@H]3[C@@H]4C[C@H](F)C5=CC(=O)C=C[C@]5(C)[C@@]4(F)[C@@H](O)C[C@]3(C)[C@]2(C(=O)CO)O1,7.13%
12,CC(=O)Nc1cc2c(cc1NC(=O)Cn1nc(-c3ccc4c(c3)OCCO4)ccc1=O)OCCO2,9.36%
13,CCOC(=O)Cn1nc(C)c(NC(=O)c2ccc(Br)o2)c1C,15%
14,O=C(O)[C@H]1CCCC[C@H]1C(=O)Nc1ccc(S(=O)(=O)N2CCCCC2)cc1,-9.27%
15,O=C(Nc1ccc2c(c1)OCCO2)c1ccco1,0.301%
16,COc1ccc(/C(N)=N/OC(=O)c2cccc([N+](=O)[O-])c2C)cc1,-12.8%
17,FC(F)(F)c1cnc(C(c2ccccn2)c2ncn[nH]2)c(Cl)c1 (centres unmarked),20.7%
18,Cc1ccc(S(=O)(=O)N2CCOCC2)cc1NC(=O)COC(=O)CNC(=O)c1ccc(C(C)(C)C)cc1,-3.31%
